Several values for one entry are separate records, joined by “and”; a condition that tells them apart may be missing. Equal values may be shown once. Screen size: about 230,000 compounds; about 3,600 (1.6%) were called active. This list was built around the results that the source calls inconclusive (neither active nor inactive); the mix of calls is not that of the screen. The call rests on the fitted dose curve; in most records, active means well fitted inhibition curve with a large enough effect (not every such curve was filed as active); inconclusive means small, poorly fitted or top-dose-only effect, or another doubt; inactive means no such curve, though single readings can be large or run the other way. Where the call is inconclusive, the potency comes from a doubtful curve fit.
target: Lysine-specific demethylase 4E (Homo sapiens) (UniProt B2RXH2); assay: qHTS Assay for Inhibitors of Human Jumonji Domain Containing 2E (JMJD2E); settings: JMJD2E catalytic domain, FDH-coupled NADH fluorescence (FDH is formaldehyde dehydrogenase); series mostly up to 57.1 µM; activity change, negative = inhibition: at the top concentration
Further: nearly all actives have a fitted effect of over 50% in size.
Potency means the concentration at half of the fitted maximal effect; tags describe the fitted curve by direction and shape.
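Wherever activity change, negative = inhibition is given: 0% = wells with enzyme and -100% = buffer wells without enzyme.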

Chain of UniProt B2RXH2 (B2RXH2 whole entry, looked up, the tested form may be a part): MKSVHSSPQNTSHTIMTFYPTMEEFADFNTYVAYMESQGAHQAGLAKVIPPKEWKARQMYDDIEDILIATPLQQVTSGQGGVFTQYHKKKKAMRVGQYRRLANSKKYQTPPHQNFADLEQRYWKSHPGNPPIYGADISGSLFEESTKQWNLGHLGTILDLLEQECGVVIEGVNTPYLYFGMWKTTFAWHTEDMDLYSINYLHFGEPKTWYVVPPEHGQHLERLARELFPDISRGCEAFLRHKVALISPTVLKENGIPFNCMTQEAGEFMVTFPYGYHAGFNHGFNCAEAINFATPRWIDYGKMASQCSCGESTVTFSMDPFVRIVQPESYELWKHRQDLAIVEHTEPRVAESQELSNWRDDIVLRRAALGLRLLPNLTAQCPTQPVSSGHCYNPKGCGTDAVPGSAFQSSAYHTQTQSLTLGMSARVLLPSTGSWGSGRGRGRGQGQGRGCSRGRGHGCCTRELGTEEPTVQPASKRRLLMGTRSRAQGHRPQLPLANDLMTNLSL

Row | SMILES | Potency | activity change, negative = inhibition
1 | CS(=O)(=O)NN1C(=O)c2ccccc2NC1c1c[nH]c2ccccc12 (stereo not given) | inconclusive: 31.6 µM [inhibitor, single point] | 
2 | COc1ccccc1-c1cc2nc(C)c(CCC(=O)NCc3ccco3)c(C)n2n1 | inconclusive: 35.5 µM [inhibitor, single point] | 
3 | NC(=O)c1cc(Cc2ccccc2)sc1NC(=O)c1ccco1 | inconclusive: 39.8 µM [inhibitor, single point] | 
4 | COc1ccc(-c2cc3ccccc3s2)cc1[C@H]1[C@H]2C=CC[C@@H](C)[C@@H]2C(=O)N1Cc1ccccc1 | inconclusive: 28.2 µM [inhibitor, partial curve] | 
5 | CCN(CCO)c1ncnc2c1sc1nc(C(C)C)c3c(c12)CC(C)(C)OC3 | inconclusive: 3.16 µM [inhibitor, single point] | 
6 | Cc1ccc(C(=O)N/N=C/c2cn(Cc3ccccc3)c3ccccc23)cn1 | inconclusive: 39.8 µM [inhibitor, single point] | 
7 | COCCNC(=O)CSCc1nc(-c2ccc(SC)cc2)oc1C | inconclusive: 25.1 µM [inhibitor, partial curve] | 
8 | O=C(COC(=O)CCc1c[nH]c(=O)[nH]1)Nc1cccc(Cl)c1 | inconclusive: 25.1 µM [inhibitor, single point] | 
9 | CC1CN(c2ccc(NC(=O)c3ccco3)cc2C(=O)O)CC(C)O1 (stereo not given) | inconclusive: 39.8 µM [inhibitor, single point] | 
10 | Cc1ccc(NC2=C(NCCO)C(=O)c3ccccc3C2=O)cc1 | inconclusive: 39.8 µM [inhibitor, single point] | 
11 | Cc1cc(C)cc(NC(=O)Nc2cc(S(=O)(=O)N(C)C)ccc2C)c1 |  | inactive: -7.38%
12 | COc1cccc2cc(C(=O)N3C(C)CCCC3C)c(=O)oc12 (stereo not given) |  | inactive: 3.84%
13 | Cc1cccc(C(=O)/C=C2/c3ccccc3CC(C)(C)N2C)c1 |  | inactive: -0.57%
14 | O=C(COC(=O)c1ccc2c(=O)n3c(nc2c1)CCC3)Nc1ccc(OC(F)F)cc1 | inconclusive: 31.6 µM [inhibitor, single point] | 
15 | Cc1ccc(-n2c(NN)nc3ccccc3c2=O)c(C)c1 | inconclusive: 35.5 µM [inhibitor, single point] | 
16 | O=C(CSc1ncnc2ccccc12)c1cccs1 | inconclusive: 25.1 µM [inhibitor, single point] | 
17 | COC(=O)[C@H](NC(=O)c1cc(-c2ccccc2)nc2ccccc12)c1ccccc1 | inconclusive: 35.5 µM [inhibitor, partial curve] | 
18 | Cc1c(OCC(=O)OC(C)C)ccc2c3c(c(=O)oc12)CCC3 | inconclusive: 25.1 µM [inhibitor, partial curve] | 
19 | CC(=O)OC1CC[C@@]2(C)C3CC(=O)[C@]4(C)C(C(C)=O)=CCC4C3CC[C@H]2C1 (stereo not given in full) |  | inactive: 7.21%
20 | O=C(NNc1ccccc1[N+](=O)[O-])Nc1ccccc1 |  | inactive: -5.21%
21 | O=C(O)C1CC=CCC1C(=O)N1CCN(c2nc(-c3ccccc3)c3ccccc3n2)CC1 (stereo not given) | inconclusive: 31.6 µM [inhibitor, partial curve] | 
22 | COCCCNc1nc2ccccc2nc1NS(=O)(=O)c1ccc(C)c(C)c1 | inconclusive: 25.1 µM [inhibitor, partial curve] | 
23 | Cn1c(=O)n(C)c2cc(NS(=O)(=O)c3ccc(Br)s3)ccc21 |  | inactive: 7.88%

Row | SMILES | Potency | activity change, negative = inhibition
24 | CC(C)CCOc1cccc(OCC(=O)NC2CCS(=O)(=O)C2)c1 (stereo not given) |  | inactive: 4.87%
25 | Cc1[nH]c(=O)[nH]c(=O)c1/C=N\NC(=O)CCc1ccc(OC(C)C)cc1 |  | inactive: 3.1%
26 | CCC1=NN2C(=N)/C(=C\c3cccn3-c3cccc(Cl)c3)C(=O)N=C2S1 | inconclusive: 35.5 µM [inhibitor, single point] | 
27 | c1ccc(C2c3[nH]c4ccccc4c3CCN2Cc2cccn2-c2cccnc2)nc1 (stereo not given) | active: 14.1 µM | 
28 | O=C(Nc1ccc(S(=O)(=O)N2CCCCC2)cc1)c1ccccc1Cl |  | inactive: 5.23%
29 | O=C(O)c1ccc(N=Nc2c(O)[nH]c3cc(Cl)ccc23)cc1 |  | inactive: -0.846%
30 | CS(=O)(=O)NN1C(=O)c2ccccc2NC1c1ccccc1 (stereo not given) | inconclusive: 28.2 µM [inhibitor, partial curve] | 
31 | CCn1c(=N)c(C(=O)OC)cc2c(=O)n3ccccc3nc21 | inconclusive: 25.1 µM [inhibitor, partial curve] | 
32 | O=C(Nc1ccccc1F)Nc1cccc2ccc(O)cc12 | inconclusive: 39.8 µM [inhibitor, single point] | 
33 | COc1ccc(CNC(=O)c2n[nH]c3ccccc23)cc1OC |  | inactive: 0.962%
34 | COc1ccccc1NC(=O)CSc1nc2c(sc3ccccc32)c(=O)n1CCN(C)C | inconclusive: 14.1 µM [inhibitor, partial curve] | 
35 | COc1ccc(-c2ncccc2O)cc1 | inconclusive: 28.2 µM [inhibitor, partial curve] | 
36 | CCc1cc2c(=O)c(Oc3ccccc3F)c(C)oc2c(CN(C)C)c1O | inconclusive: 28.2 µM [inhibitor, partial curve] | 
37 | COc1cccc(/C=C(/C#N)c2ccc(F)cc2)c1OCc1cccc(C(=O)O)c1 |  | inactive: 1.68%
38 | COc1c2c(cc3oc(=O)ccc13)OC(C)(C)C=C2 | inconclusive: 31.6 µM [inhibitor, partial curve] | 
39 | COc1ccc(CC(=O)OCc2cc(=O)n3cc(Br)ccc3n2)cc1OC | inconclusive: 28.2 µM [inhibitor, single point] | 
40 | O=C(CSc1cccc[n+]1[O-])Nc1ccc([N+](=O)[O-])cc1Cl |  | inactive: 16.6%
41 | Cc1ccc2nc(-c3ccccc3Cl)cc(C(=O)Nc3cc(C)on3)c2c1 | inconclusive: 28.2 µM [inhibitor, partial curve] | 
42 | Nn1c(SCC(=O)Nc2ccc(F)c(F)c2)nnc1C1CCCCC1 |  | inactive: 12.9%
43 | Cc1ccccc1Cn1c(CN2CCc3ccccc3C2)nc2c1c(=O)n(C)c(=O)n2C | inconclusive: 39.8 µM [inhibitor, single point] | 
44 | O=C(O)Cc1sc(Nc2ccc(Cl)cc2)nc1-c1cccs1 | inconclusive: 31.6 µM [inhibitor, single point] | 
45 | N[C@@H](C(=O)O)c1ccc(C(=O)O)cc1 | inactive and inconclusive: 31.6 µM [inhibitor, partial curve, poor fit] | 
